The values below come from the supplement of paper PMC4967469.

A lower IC50 marks a more sensitive line; where the fit passes the top or lowest dose, that dose stands as a limit. AUC is the area under the same curve over the 256-fold range up to the top dose, as a fraction; values near 1 show little effect.

Compound in the test: N#CC[C@H](C1CCCC1)n1cc(-c2ncnc3[nH]ccc23)cn1 [Ruxolitinib]
Nature of the test: Viability of human cancer cell lines after 72 h of drug (GDSC screen). As for the experimental part:
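Human cancer cell lines in 384-well plates, medium with 10% serum, drug for 72 h over a 256-fold dose range (nine 2-fold or five 4-fold steps up to the top dose). Adherent lines were fixed and stained with the nucleic acid dye Syto60, suspension lines read with resazurin; signal relative to control wells, capped at 0 and 100%. One two-parameter sigmoid per drug and line, fitted in a mixed model over all curves with the slope shared within a line.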

In the case of “H3118 (head and neck, adherent, top dose 5.24 µM)”, the AUC came to 0.98 and the IC50 was greater than 5.24 µM.
“OV-7 (ovary, adherent, top dose 5.24 µM)”: the AUC was found to be 0.976 and the IC50 was greater than 5.24 µM.
For the cell line “G-402 (soft tissue, adherent, top dose 5.24 µM)”, the AUC was found to be 0.971 and the IC50 was greater than 5.24 µM.
As for “SW1783 (glioma, adherent, top dose 5.24 µM)”, the AUC turned out to be 0.99 and the concentration for half-maximal inhibition (IC50) was greater than 5.24 µM.
In the same order, the values of “SNU-C1 (large intestine, suspension, top dose 5.24 µM)” are 0.952 and greater than 5.24 µM.
Take “OVCAR-5 (ovary, adherent, top dose 5.24 µM)”: the AUC turned out to be 0.982 and the concentration for half-maximal inhibition (IC50) was greater than 5.24 µM.
Consider “HT (B-cell lymphoma, suspension, top dose 5.24 µM)”, for which the AUC stood at 0.988 and the half-maximal inhibitory concentration (IC50) is greater than 5.24 µM.
In the same order, the values of “TGBC1TKB (biliary tract, adherent, top dose 5.24 µM)” are 0.988 and greater than 5.24 µM.
Take “RCC-AB (kidney, adherent, top dose 5.24 µM)”: the AUC came out at 0.977 and the IC50 was greater than 5.24 µM.
In the case of “SW48 (large intestine, adherent, top dose 5.24 µM)”, the AUC worked out at 0.987 and the IC50 is greater than 5.24 µM.
As to “DSH1 (bladder, adherent, top dose 5.24 µM)”, the AUC is 0.989 and the half-maximal inhibitory concentration (IC50) is greater than 5.24 µM.
In the case of “HCC2998 (large intestine, adherent, top dose 5.24 µM)”, the AUC was found to be 0.988 and the IC50 is greater than 5.24 µM.
As to “NCI-H1048 (small cell lung carcinoma, adherent, top dose 5.24 µM)”, the AUC amounted to 0.99 and the half-inhibitory concentration (IC50) is greater than 5.24 µM.
As to “NCI-H2196 (small cell lung carcinoma, adherent, top dose 5.24 µM)”, the AUC turned out to be 0.959 and the IC50 is greater than 5.24 µM.
Consider “OVMIU (ovary, adherent, top dose 5.24 µM)”, for which the AUC turned out to be 0.974 and the IC50 was greater than 5.24 µM.
For the cell line “SU-DHL-8 (B-cell lymphoma, suspension, top dose 5.24 µM)”, the AUC turned out to be 0.988 and the half-inhibitory concentration (IC50) is greater than 5.24 µM.
With “GAMG (glioma, adherent, top dose 5.24 µM)”, the AUC amounted to 0.972 and the IC50 was greater than 5.24 µM.
As for “PA-1 (ovary, adherent, top dose 5.24 µM)”, the AUC was 0.993 and the IC50 is greater than 5.24 µM.
As for “ALL-PO (lymphoblastic leukaemia, suspension, top dose 5.24 µM)”, the AUC was determined as 0.955 and the IC50 was greater than 5.24 µM.
Consider “NCI-H747 (large intestine, adherent, top dose 5.24 µM)”, for which the AUC turned out to be 0.979 and the IC50 is greater than 5.24 µM.
“H513 (mesothelioma, semi-adherent, top dose 5.24 µM)”: the AUC is 0.986 and the IC50 is greater than 5.24 µM.
Regarding “DK-MG (glioma, adherent, top dose 5.24 µM)”, the AUC amounted to 0.973 and the IC50 was greater than 5.24 µM.
As for “TE-9 (oesophagus, adherent, top dose 5.24 µM)”, the AUC is 0.987 and the IC50 is greater than 5.24 µM.
Turning to “NU-DUL-1 (B-cell lymphoma, suspension, top dose 5.24 µM)”, the AUC turned out to be 0.986 and the IC50 was greater than 5.24 µM.
Turning to “LK-2 (lung squamous cell carcinoma, adherent, top dose 5.24 µM)”, the AUC worked out at 0.989 and the IC50 is greater than 5.24 µM.
Take “RCC-JF (kidney, adherent, top dose 5.24 µM)”: the AUC turned out to be 0.979 and the IC50 was greater than 5.24 µM.
As for “NCI-H209 (small cell lung carcinoma, suspension, top dose 5.24 µM)”, the AUC was 0.909 and the half-maximal inhibitory concentration (IC50) was greater than 5.24 µM.
Take “NCI-H1155 (large cell lung carcinoma, suspension, top dose 5.24 µM)”: the AUC stood at 0.992 and the IC50 was greater than 5.24 µM.
In the same order, the values of “8305C (thyroid, adherent, top dose 5.24 µM)” are 0.982 and greater than 5.24 µM.
In the same order, the values of “KOPN-8 (B-cell leukaemia, suspension, top dose 5.24 µM)” are 0.99 and greater than 5.24 µM.
On to “SR (lymphoid neoplasm, suspension, top dose 5.24 µM)”, for which the AUC was 0.804 and the IC50 was 2.31 µM.
In the same order, the values of “NB6 (neuroblastoma, adherent, top dose 5.24 µM)” are 0.984 and greater than 5.24 µM.
Turning to “NTERA-2 cl.D1 (testis, adherent, top dose 5.24 µM)”, the AUC stood at 0.984 and the IC50 was greater than 5.24 µM.
Regarding “NOMO-1 (acute myeloid leukaemia, suspension, top dose 5.24 µM)”, the AUC was 0.979 and the IC50 is greater than 5.24 µM.
Turning to “NCI-H1395 (lung adenocarcinoma, adherent, top dose 5.24 µM)”, the AUC was determined as 0.98 and the half-maximal inhibitory concentration (IC50) was greater than 5.24 µM.
For “HCC2157 (breast, suspension, top dose 5.24 µM)”, the AUC was determined as 0.978 and the half-inhibitory concentration (IC50) was greater than 5.24 µM.
Consider “NCI-H211 (small cell lung carcinoma, adherent, top dose 5.24 µM)”, for which the AUC came out at 0.981 and the IC50 is greater than 5.24 µM.
For “TE-5 (oesophagus, adherent, top dose 5.24 µM)”, the AUC amounted to 0.983 and the IC50 was greater than 5.24 µM.
In the same order, the values of “HEC-1 (endometrium, adherent, top dose 5.24 µM)” are 0.989 and greater than 5.24 µM.
In the same order, the values of “H2818 (mesothelioma, adherent, top dose 5.24 µM)” are 0.988 and greater than 5.24 µM.
In the same order, the values of “KMRC-1 (kidney, adherent, top dose 5.24 µM)” are 0.987 and greater than 5.24 µM.
As for “BB30-HNC (head and neck, adherent, top dose 5.24 µM)”, the AUC turned out to be 0.986 and the IC50 is greater than 5.24 µM.
Take “COLO-783 (melanoma, adherent, top dose 5.24 µM)”: the AUC is 0.991 and the half-maximal inhibitory concentration (IC50) is greater than 5.24 µM.
In the same order, the values of “HDQ-P1 (breast, adherent, top dose 5.24 µM)” are 0.982 and greater than 5.24 µM.
As to “201T (lung adenocarcinoma, adherent, top dose 5.24 µM)”, the AUC stood at 0.97 and the concentration for half-maximal inhibition (IC50) is greater than 5.24 µM.
Take “KYSE-220 (oesophagus, adherent, top dose 5.24 µM)”: the AUC was 0.98 and the IC50 was greater than 5.24 µM.
As to “SKN-3 (head and neck, adherent, top dose 5.24 µM)”, the AUC is 0.983 and the IC50 is greater than 5.24 µM.
In the same order, the values of “EKVX (lung adenocarcinoma, adherent, top dose 5.24 µM)” are 0.969 and greater than 5.24 µM.
“H2795 (mesothelioma, adherent, top dose 5.24 µM)”: the AUC is 0.949 and the IC50 is greater than 5.24 µM.
With “EW-1 (Ewing sarcoma, semi-adherent, top dose 5.24 µM)”, the AUC was determined as 0.982 and the IC50 was greater than 5.24 µM.
“SK-PN-DW (Ewing sarcoma, adherent, top dose 5.24 µM)”: the AUC amounted to 0.98 and the IC50 was greater than 5.24 µM.
Take “HC-1 (hairy cell leukaemia, suspension, top dose 5.24 µM)”: the AUC was 0.965 and the half-maximal inhibitory concentration (IC50) is greater than 5.24 µM.
Regarding “AU565 (breast, adherent, top dose 5.24 µM)”, the AUC was found to be 0.982 and the IC50 is greater than 5.24 µM.
Take “D-336MG (glioma, adherent, top dose 5.24 µM)”: the AUC worked out at 0.976 and the IC50 was greater than 5.24 µM.
As for “no-10 (glioma, adherent, top dose 5.24 µM)”, the AUC came out at 0.978 and the IC50 was greater than 5.24 µM.
Turning to “MDA-MB-415 (breast, adherent, top dose 5.24 µM)”, the AUC was 0.982 and the IC50 is greater than 5.24 µM.
On to “EFM-192A (breast, adherent, top dose 5.24 µM)”, for which the AUC turned out to be 0.976 and the half-maximal inhibitory concentration (IC50) is greater than 5.24 µM.
Regarding “NCI-H82 (small cell lung carcinoma, suspension, top dose 5.24 µM)”, the AUC was determined as 0.988 and the IC50 is greater than 5.24 µM.
As to “PE/CA-PJ15 (head and neck, adherent, top dose 5.24 µM)”, the AUC came to 0.983 and the half-inhibitory concentration (IC50) was greater than 5.24 µM.
Take “OVISE (ovary, adherent, top dose 5.24 µM)”: the AUC was determined as 0.961 and the IC50 is greater than 5.24 µM.
Take “D-502MG (glioma, adherent, top dose 5.24 µM)”: the AUC was determined as 0.974 and the IC50 is greater than 5.24 µM.
“U251 (glioma, adherent, top dose 5.24 µM)”: the AUC came to 0.987 and the concentration for half-maximal inhibition (IC50) was greater than 5.24 µM.
Consider “H9 (lymphoid neoplasm, suspension, top dose 5.24 µM)”, for which the AUC is 0.99 and the IC50 is greater than 5.24 µM.
Consider “FADU (head and neck, adherent, top dose 5.24 µM)”, for which the AUC was found to be 0.988 and the IC50 is greater than 5.24 µM.
As for “HUTU-80 (digestive system, adherent, top dose 5.24 µM)”, the AUC was determined as 0.991 and the IC50 is greater than 5.24 µM.
“NCI-H2170 (lung squamous cell carcinoma, adherent, top dose 5.24 µM)”: the AUC turned out to be 0.985 and the half-inhibitory concentration (IC50) is greater than 5.24 µM.
